Measured values from the supplement of paper PMC11417369.
The other results are listed elsewhere or left out.

What follows are sequences tested on PfSIP2 AP2 domain 1 (GST-tagged) (assay: gcPBM binding intensity (ln(normalized median fluorescence intensity)); higher = stronger DNA binding).
Outline: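 Plasmodium falciparum DNA-binding domains carrying a GST tag were expressed in E. coli and applied for 1 h, at about 25 μg on average, to an Agilent 4 × 180k array. The array held primer-extended double-stranded 36-bp intergenic genomic probes together with negative controls, and binding took place in 1× PBS with 1% milk, 0.2 mg/ml BSA, 0.5% salmon testes DNA and 0.03% Triton X-100. An Alexa488 anti-GST antibody detected bound protein, and the array was scanned at 488 nm. Binding intensity is taken as the highest Masliner-normalised natural-log median intensity across replicate spots of either probe orientation.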

Sequence	gcPBM binding intensity (ln)
AAAAAAAAGTTCTACACACACAAAAAAATATTTTTT [CACACA_site2309]	6.73
GTGTGCTTTTTACGAGTGCAAGTATTTTGGTGGTTA [GTGCAC_site9496]	9.35
GTACACATATAATATACACACAACAAATATGCACAT [CACACA_site1010]	8.85
AATACATATTCAAAGGTGCAAAATAAAAATATACAT [GTGCAC_site9743]	11
TTATAATAAGATTGTTGTACTTATATTCCTTCTATA [XGTACX_site3173]	6.89
TGTTTTGTATATATAGCATGCAGTAAGGGAAAAAAA [TGCATGCA_site652]	7.25
TAGTTATAAGAGTTACAAAGAATACCGGAAATATAG [CACACA_negctrl_site1829]	7.23
TCGTTTCATATTTATCATGAGATAATCACACGAACA [TGCATGCA_negctrl_site497]	7.18
AATGTCAATTTTAATAGTACACAAATATATATATAT [XGTACX_site521]	8.77
AATGACCATTTTTAAAATTACAAATACATACAACTG [TGCATGCA_negctrl_site420]	6.82
AAGTATTATTATAAGACACACATGTATTTAAGTATA [CACACA_site4922]	6.84
TTATATATAGATCACACACACACACCGGTTTTAAAA [CACACA_site4220]	6.93
AAATTTTAATTAGGAACACACATATATATATATATA [CACACA_site5673]	9.42
TATTTATCTATATATTGTACTTATTAGTCTTAATGT [XGTACX_site4242]	7.1
TAAATTTATGGACACACACACATATATATATATATA [CACACA_site4620]	9.35
TCTTTTTTAATATAATATATTTTTATTAAGTAAATC [TGCATGCA_negctrl_site408]	6.91
TTTTCAGAAAAGAGAAACTTTATTTTTCACAACCGA [TGCATGCA_negctrl_site389]	6.55
ATTTTTTATGAAAATAAACACACGATTTATTATATA [CACACA_site1312]	6.76
TAAAAAATTATTAAACGTACGAGACTTTTTATCAGT [XGTACX_site2219]	7.05
TGTAGTCATTAGTCAAATTAGAATTAAATATATATT [GTGCAC_negctrl_site643]	6.94
CATAAAAATGGATACACACACATAATATATTTATAT [CACACA_site7669]	7.16
ACAATATATTCATATTGTACATAAAATAAGGCTAAC [XGTACX_site6728]	7.44

Sequence	gcPBM binding intensity (ln)
TATATTTAAATTCTTTCAAATCATGTTGTAATTTTT [CACACA_negctrl_site1349]	6.8
ATACACTTAATATTATGTACATATATAAAAAAAATA [XGTACX_site1500]	7.19
TATAAAAATAATATTACACACATGTAAAATGGGGGT [CACACA_site9071]	7.28
AGGAATATCGAAAACTGTACTTGTATGTTTCATAAA [XGTACX_site6143]	6.94
AATTGTATGTATGCCTGTACATATGTCTATCTTAAG [XGTACX_site1927]	6.92
TATTTTATATGAGGCACACAAATTTTAATTGTTATT [CACACA_site725]	6.72
ATTTATTTATTTTTTTGTACTTATAATTTTTATTAT [XGTACX_site2656]	7.03
GCACATATGAATATAATACACACTTGTATTATTAAT [CACACA_site1841]	6.9
ATTTTATATACAAAATGTACATATTTATTATATATG [XGTACX_site6732]	6.99
GGAGCTATCTCCTGCACACACAATTTTTTTTTTTTT [CACACA_site2240]	7.04
AAGGATACGCAAAAATGTACAAAATGCTTATAAATA [XGTACX_site984]	6.94
ATTAAAATCATATACACACCCATATATATATATATA [CACACA_site5050]	9.39
ATACATATCTACCTATGTACATAATACAACAAAGAT [XGTACX_site323]	7.2
GAATAAATACCGGTGTGTACTTAAATCATTCACGAA [XGTACX_site3174]	6.91
TGAGTATATAAATACACACACATATATATATTTTAA [CACACA_site5130]	6.78
TTTTATTTTTAAGGATGTACTCAATTGTTTATATAC [XGTACX_site3965]	7.06
TTTTTTTTTAATAAAATTATAATAAATATGAAATTA [XGTACX_negctrl_site369]	6.67
ATATATATATATATATGTACACATATATATACTCAC [XGTACX_site8043]	9.5
TTAGAAAGAATGTATTGTACATATATATTATATATA [XGTACX_site7045]	7.41
ATATGTTTATTTATTTGTACTTATCATATAATAACA [XGTACX_site5486]	7.05
TGTATATTTTAGTGATGTACTAATATTATTACTAAT [XGTACX_site3952]	6.99
TGCTTAGCACACTATCTACTTCCTTTGTTTCATAAA [GTGCAC_negctrl_site495]	7.25

Sequence	gcPBM binding intensity (ln)
TTCATTTATATAATCACACATTTTATCATCTATGTT [CACACA_site4327]	7.11
ATCGTTATATAATGTTGTACTTGTTATATATATATA [XGTACX_site7582]	8.88
GCATGCACGGAAAAAAGTACATATATAAATTTGGTT [XGTACX_site3393]	7.2
GGTTCTAAAAAGGGAAGTACATGGAAAAATATAAAT [XGTACX_site4639]	6.97
TTTTTTAAATATATTTGTACATATGAAATAAAGATA [XGTACX_site3841]	6.99
AAAATTTAGCAAAGGTGTACAAAAGATAATTAGAGT [XGTACX_site3467]	7.62
AAAATTATTATGAAAAGTACAAATATGTAAACATAC [XGTACX_site5517]	6.99
ATTCTAATTAGTAAAGTGCAGATAAAATGATGCCCT [GTGCAC_site9578]	7.67
CAGCATGGTATACCTATAAAATATATATACTAACAT [TGCATGCA_negctrl_site51]	6.95
TTTTTAAAAAATAAGAAAAAATAAATATATTACAAA [XGTACX_negctrl_site191]	6.78
ATGTTACACAGACACACACACATAAAAAAACAAAAA [CACACA_site7516]	7.16
GGCATATATACATATGGTACACATTTATTAATACCG [XGTACX_site2710]	7.03
CACATACATATATATACACACAAATATATATACGCA [CACACA_site791]	7.15
GATGTGTATATTAAATGTACGAACAGTTGAGGCGAA [XGTACX_site7853]	7.39
AGGATATAAAGTTGTGCATGTCAAGTGCACCGTATT [TGCATGCA_site451]	12.2
AGAAAAATCTAAATTCGTACATAACGTTTAAACATA [XGTACX_site2511]	6.79
GTTTTATTCCATTATTGTACTTAATATAAAGAAACT [XGTACX_site3054]	7.41
ATAATAATATGTGGGTGTACATATACACATATATAT [XGTACX_site4356]	7.22
ATAAATTGAAGTAAATTTGACCTTTTTTTTTTTTTT [GTGCAC_negctrl_site354]	7.02
AGAACATGCAAACATGCACACAGAAAAAAAAAATAT [CACACA_site8442]	8.26
TTTATTGATAATATATATATATATATATATATATAT [GTGCAC_negctrl_site552]	9.61
AATATCTTAGTGGATACACACATATAAATGGGTATT [CACACA_site4426]	6.81

Sequence	gcPBM binding intensity (ln)
TCATATGTTAAACACACACACACACCGAAAAAAACA [CACACA_site9067]	7.4
AAAAAATTAAAAAAAAAAAAATCATGAAAAAAACAA [CACACA_negctrl_site1673]	6.84
CCTAAATAAATGGACACACACATATATATATATATA [CACACA_site1439]	9.33
CTTATATTAAGTATTACACACATATATATAAATGCA [CACACA_site4581]	7.03
TATATATATATAAGAAGTACAGAAAATTAGAAAAAA [XGTACX_site8773]	9.11
TAGAAATAAGAAAAATGTACATATAATATTGAAAGT [XGTACX_site3043]	7.41
TTTTACGTAATATTTATACACACGAACCTTATTAAT [CACACA_site2300]	6.96
AGTCTATAGTAATTTACACACAAAAAAATATCAGGA [CACACA_site7620]	7.09
AGTAGTCTGGAGAAAAGTACATAGTATCTGGTAGCT [XGTACX_site2027]	6.92
ACAAAAAAAAAAAAAAAAAGAAGAATATATCTATAT [CACACA_negctrl_site759]	6.77
TATCATACAATATTCACACAAATAAATTGACATATT [CACACA_site5891]	6.95
AAAAAGGAAATAATAACACACATTAGTAATTATAAA [CACACA_site7573]	6.58
CACAGACACGGACACACACACACAAAAAAAAAAAGA [CACACA_site4436]	7.27
TATTAAAAAAATATTTGTACTTAAAATTTATTATAT [XGTACX_site1467]	7.04
TATTTTCTTTAATTAATTATTGGTCTGAATGGGGTT [CACACA_negctrl_site418]	7.02
AGAGGAGTAAAACAAAACAAAGAGAAATAAACACAC [XGTACX_negctrl_site386]	8
AATTAATAAATATTATATGTTAATATTTTTTTTGTT [CACACA_negctrl_site1692]	6.77
TTTCATATCTTGTCAAGTACATATTTTTATTTTCTT [XGTACX_site2160]	6.82
AAAAAATATAATAATTGTACACATGCACACACAAAT [XGTACX_site1563]	8.22
ACTTAATATCGGTACACACACAAGATAAGAATTATG [CACACA_site894]	7.46
TTTTTATAAAAATGAACACACACATATATATATATA [CACACA_site9160]	9.39
